Assay results published in patent publication US11891445 (ABL BIO, dated 2024).

T1: human B7-H3 expressed on a cell surface (human cancer cell lines) (human, UniProt Q5ZPR3 29-534)
T1 construct: whole, on cells; also called cell surface expression B7-H3 antigen
T1 sequence (looked up): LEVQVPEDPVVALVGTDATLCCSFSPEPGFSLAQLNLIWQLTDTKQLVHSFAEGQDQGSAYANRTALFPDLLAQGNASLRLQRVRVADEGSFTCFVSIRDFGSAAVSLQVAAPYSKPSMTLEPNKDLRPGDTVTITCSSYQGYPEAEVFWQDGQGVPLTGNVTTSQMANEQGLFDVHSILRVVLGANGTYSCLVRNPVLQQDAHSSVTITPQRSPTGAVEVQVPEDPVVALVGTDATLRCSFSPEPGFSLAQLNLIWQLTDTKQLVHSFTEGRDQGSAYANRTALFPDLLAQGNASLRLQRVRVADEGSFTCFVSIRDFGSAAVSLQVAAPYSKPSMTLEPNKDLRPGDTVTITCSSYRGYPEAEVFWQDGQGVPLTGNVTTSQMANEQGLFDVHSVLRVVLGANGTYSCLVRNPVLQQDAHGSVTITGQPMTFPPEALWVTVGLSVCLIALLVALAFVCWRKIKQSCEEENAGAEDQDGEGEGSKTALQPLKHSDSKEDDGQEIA

T2: B7-2 (Sino Biological, Cat #: 10699-H08H) (human, UniProt P42081 24-247)
T2 construct: extracellular domain; Bought
T2 sequence (looked up): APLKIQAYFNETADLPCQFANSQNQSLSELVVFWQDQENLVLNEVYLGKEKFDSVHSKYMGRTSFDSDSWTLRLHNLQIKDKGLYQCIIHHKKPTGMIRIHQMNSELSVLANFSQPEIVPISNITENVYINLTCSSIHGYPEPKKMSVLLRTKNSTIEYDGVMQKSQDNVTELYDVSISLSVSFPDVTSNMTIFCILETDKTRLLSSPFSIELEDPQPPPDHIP

T3: B7-H2 (Sino Biological, Cat #: 11559-H08H) (human, UniProt O75144 19-256)
T3 construct: extracellular domain; Bought
T3 sequence (looked up): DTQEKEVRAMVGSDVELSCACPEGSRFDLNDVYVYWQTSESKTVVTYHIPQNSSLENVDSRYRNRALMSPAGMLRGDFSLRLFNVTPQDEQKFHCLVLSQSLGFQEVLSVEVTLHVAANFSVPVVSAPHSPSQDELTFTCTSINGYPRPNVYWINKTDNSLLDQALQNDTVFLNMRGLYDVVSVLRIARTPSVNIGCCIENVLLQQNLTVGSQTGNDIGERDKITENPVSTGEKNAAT

B1: anti-B7-H3 antibody D8G (full IgG form) (antibody)
heavy: EVQLLESGGGLVQPGGSLRLSCAASGFTFSSYSMSWVRQAPGKGLEWVSGIYSDGSNTYYADSVKGRFTISRDNSKNTLYLQMNSLRAEDTAVYYCAKMLHRFDYWGQGTLVTVSS[human IgG1 constant region not shown]
light: QSVLTQPPSASGTPGQRVTISCSGSSSNIGSNSVTWYQQLPGTAPKLLIYADSQRPSGVPDRFSGSKSGTSASLAISGLRSEDEADYYCGTWDSSLNAYVFGGGTKLTVLGQPKAAPSVTLFPPSSEELQANKATLVCLISDFYPGAVTVAWKADSSPVKAGVETTTPSKQSNNKYAASSYLSLTPEQWKSHRSYSCQVTHEGSTVEKTVAPAECS
B2: anti-B7-H3 antibody 10F11 (full IgG form) (antibody)
heavy: EVQLLESGGGLVQPGGSLRLSCAASGFTFSSYGMSWVRQAPGKGLEWVSGIYSGGSSKYYADSVKGRFTISRDNSKNTLYLQMNSLRAEDTAVYYCAKNRLRFDYWGQGTLVTVSS[human IgG1 constant region not shown]
light: QSVLTQPPSASGTPGQRVTISCTGSSSNIGSNSVTWYQQLPGTAPKLLIYSDSHRPSGVPDRFSGSKSGTSASLAISGLRSEDEADYYCGTWDASLNAYVFGGGTKLTVLGQPKAAPSVTLFPPSSEELQANKATLVCLISDFYPGAVTVAWKADSSPVKAGVETTTPSKQSNNKYAASSYLSLTPEQWKSHRSYSCQVTHEGSTVEKTVAPAECS
B3: anti-B7-H3 antibody B5 (full IgG form) (antibody)
heavy: EVQLLESGGGLVQPGGSLRLSCAASGFTFSDYAMSWVRQAPGKGLEWVSSISSGSGSIYYADSVKGRFTISRDNSKNTLYLQMNSLRAEDTAVYYCAKNLIPLDYWGQGTLVTVSS[human IgG1 constant region not shown]
light: QSVLTQPPSASGTPGQRVTISCSGSSSNIGSNAVSWYQQLPGTAPKLLIYYNSHRPSGVPDRFSGSKSGTSASLAISGLRSEDEADYYCGSWDASLNAYVFGGGTKLTVLGQPKAAPSVTLFPPSSEELQANKATLVCLISDFYPGAVTVAWKADSSPVKAGVETTTPSKQSNNKYAASSYLSLTPEQWKSHRSYSCQVTHEGSTVEKTVAPAECS
B4: anti-B7-H3 antibody C4I (full IgG form) (antibody)
heavy: EVQLLESGGGLVQPGGSLRLSCAASGFTFSGYYMSWVRQAPGKGLEWVSLISPSSGSIYYADSVKGRFTISRDNSKNTLYLQMNSLRAEDTAVYYCAKGLTKFDYWGQGTLVTVSS[human IgG1 constant region not shown]
light: QSVLTQPPSASGTPGQRVTISCTGSSSNIGSNDVSWYQQLPGTAPKLLIYANSHRPSGVPDRFSGSKSGTSASLAISGLRSEDEADYYCGSWDDSLSGYVFGGGTKLTVLGQPKAAPSVTLFPPSSEELQANKATLVCLISDFYPGAVTVAWKADSSPVKAGVETTTPSKQSNNKYAASSYLSLTPEQWKSHRSYSCQVTHEGSTVEKTVAPAECS
notes: also called C41
B5: anti-B7-H3 antibody F6V (full IgG form) (antibody)
heavy: EVQLLESGGGLVQPGGSLRLSCAASGFTFSDYAMSWVRQAPGKGLEWVSGISPGGSNTYYADSVKGRFTISRDNSKNTLYLQMNSLRAEDTAVYYCAKDAWIARLLLFDYWGQGTLVTVSS[human IgG1 constant region not shown]
light: QSVLTQPPSASGTPGQRVTISCSGSSSNIGSNAVTWYQQLPGTAPKLLIYYNNKRPSGVPDRFSGSKSGTSASLAISGLRSEDEADYYCGTWDDSLSGYVFGGGTKLTVLGQPKAAPSVTLFPPSSEELQANKATLVCLISDFYPGAVTVAWKADSSPVKAGVETTTPSKQSNNKYAASSYLSLTPEQWKSHRSYSCQVTHEGSTVEKTVAPAECS

What was measured:
[1] = biological target: T1, human B7-H3 expressed on a cell surface …; assay: flow cytometry, MDA-MB-231 cells, antibody 10 ug/ml
[2] = biological target: T1, human B7-H3 expressed on a cell surface …; assay: flow cytometry, NCI-N87 cells, antibody 10 ug/ml
Source text: (§1) Using various kinds of cancer cells A2780 (human ovarian cancer, ECACC, 93112519), SKOV-3 (human ovarian adenocarcinoma, ATCC® HTB-77™) OVCAR-3 (human ovarian adenocarcinoma, ATCC® HTB-161™), HCT116 (colon cancer cell, ThermoFIshcer Sci), HT29 (olorectal adenocarcinoma, ATCC® HTB-38™), DLD-1 (colorectal adenocarcinoma cell lines, ATCC® CCL-221™), Calu-6 (Non-small-cell lung carcinoma, ATCC® HTB-56™), HCC1954 (TNM stage IIA, grade 3, ductal carcinoma, ATCC® CRL-2338™), HCC1187 (TNM stage IIA, ATCC® CLC-2322™), renal cancer cell line 786-0 (renal cell adenocarcinoma, ATCC® CRL-1932™), A498 (kidney carcinoma, ATCC® HTB-44™), Panc-1 (pancreas epithelioid carcinoma, TCC CRL-1469™), NCI-N87 (gastric carcinoma, TCC CRL-5822™), HeLa (cervix adenocarcinoma, ATCC® CCL-2™), JeKo-1 (Lymphoma, ATCC® CRL-3006™) and FACSCalibur (BD Biosciences) device, the degree of binding of anti-B7-H3 antibody to B7-H3 was measured as follows.
(§2) After dissociating each cell line and washing it with PBS buffer, the number of cells was counted and adjusted to 2×10^5 cells/200 µl PBS, and then was treated with 10 µg/ml of B7-H3 monoclonal antibodies prepared in Example 2. Reaction was allowed at 4° C. for 1 hr. After washing the reacted cells in PBS, the FITC-labeled constant region (Fc)-specific antibody (Goat anti-human IgG FITC conjugate, Fc specific, Sigma, F9512, concentration: 2.0 mg/ml)) was diluted by 1:500 and added 100 µl per well. and Reaction was allowed at 4° C. for 1 hr. After the reaction, cells were washed in PBS and analyzed using the FACSCalibur device. The negative control group was treated by the FITC-labeled constant region (Fc) specific antibody only. To compare expression degrees of B7-H3 among different cancer cell lines, the value for the peak shift in the experimental groups treated with the B7-H3 monoclonal antibody was divided by the value for the peak shift in the negative control group (MFI Ratio, Mean Fluorescence Intensity Ratio).

[3] = biological target: T2, B7-2 (Sino Biological, Cat #: …); assay: ELISA on plate-coated recombinant B7 family proteins (1 ug/ml)
Procedure: (§3) Specifically, after diluting the recombinant human B7 family proteins at a concentration of 1 µg/ml and putting them in a 96-well plate (Nunc-Immuno Plates, NUNC) in 100 µl per well, it was reacted at 4° C. for 16 hrs for coating. The recombinant proteins used in Example 1 was used.
(§4) Then, after removing proteins and washing it with PBST, 200 µl of PBS buffer comprising 1% BSA (bovine serum albumin) was put per well and it was reacted at 37° C. for 2 hrs to block non-specific binding. Then, after diluting the anti-B7-H3 antibodies prepared in Example 2 in 10 µg/ml on a 96-well plate, 100 µl was put per well and it was reacted at 37° C. for 1 hr. Then after it was washed with PBST. In order to detect antibodies bound to an antigen, HRP-connected anti-human IgG F(ab')2 antibody (Goat anti-Human IgG F(ab')2 Cross-Adsorbed Secondary Antibody, HRP, Pierce, 31414) was diluted in PBS comprising 1% bovine serum albumin (BSA) by 1:10,000. 100 µl was put per well and it was reacted at 37° C. for about 1 hr. After washing it with PBST again, TMB (Tetramethylbenzidine, Sigma, T0440) 100 µl was put to develop color. After reacting it at RT for 5-10 min, 50 µl of H_2SO_4 was put to finish the reaction, and the absorbance at 450 nm and 650 nm was measured by using a micro plate reader (molecular device).

[4] = biological target: T3, B7-H2 (Sino Biological, Cat #: …); assay: as above
Procedure: as §3, §4

[5] = biological target: T1, human B7-H3 expressed on a cell surface …; assay: flow cytometry, A2780 cells, antibody 10 ug/ml
Source text: as §1, §2

[6] = biological target: T1, human B7-H3 expressed on a cell surface …; assay: flow cytometry, MCF-7 cells, antibody 10 ug/ml

MFI Ratio [1] [ratio]	MFI Ratio [2] [ratio]	binding result [3]	binding result [4]	MFI Ratio [5] [ratio]	MFI Ratio [6] [ratio]	Binder
8.5	21.5	no binding	no binding	21.6	136	B1
12.4	31.7	no binding	no binding	25.5	152	B2
11.4	27.3	no binding	no binding	26.6	154	B3
6.2	17.6	no binding	no binding	18.3	109	B4
11.3	33.4	no binding	no binding	25.2	151	B5
